Source: PubChem BioAssay AID1345082 (National Center for Advancing Translational Sciences (NCATS), 2018)
About 4,000 (4.3%) of roughly 94,000 compounds were called active. The shares of active, inactive and inconclusive entries below differ from those in the screen. Calls come from the whole dose curve; as a rule, active = well fitted inhibition curve with a large enough effect; inconclusive = small, poorly fitted or top-dose-only effect; inactive = no such curve, though single readings can be large or run the other way. Potencies beside an inconclusive call are fits to weak or partial responses and may not hold up.

assay: Cytotoxic Profiling in NIH 3T3 Cell Line of Diverse Libraries Using Quantitative High-Throughput Screening; details: NIH 3T3 viability, CellTiter-Glo ATP luminescence, 48-72 h; series mostly up to 96.7 µM; note: nearly all actives have a fitted effect of over 55% in size
Method in brief: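 Viability of NIH 3T3 cells after 48 or 72 hr compound treatment at 37 °C was assessed by CellTiter-Glo, with luminescence imaged following a 10 min room-temperature step.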
Potency is the fitted concentration of half-maximal effect; tags give direction and shape of the fitted curve.

SMILES | Potency
CCN(Cc1ccncc1)C(=O)c1ccc2c(c1)C(O)CCCCCN2C (centres undefined) | inconclusive: 35.5 µM [inhibitor, partial curve]
CCN1CCC2(CCC1=O)CN(Cc1cccc(Cl)c1F)CCN2C (centres undefined) | inactive
CN1C(=O)CCN(C(=O)CC(C)(C)C)CC(OCC(N)=O)c2ccccc21 (centres undefined) | inconclusive: 31.6 µM [inhibitor, partial curve, poor fit]
CCCCc1cc(C[C@@H]2C[C@H](NC(=O)c3ccco3)C2(C)C)no1 | inconclusive: 50.1 µM [inhibitor, partial curve, poor fit]
CC(C)N1CCN(C(=O)CCC[C@@H]2[C@H]3CCCN4CCC[C@@H](CN2Cc2ccccc2)[C@@H]34)CC1 | inconclusive: 39.8 µM [inhibitor, partial curve]
COCCNC(=O)c1ccc2nc(-c3cccc(C)n3)oc2c1 | inconclusive: 56.2 µM [inhibitor, partial curve, poor fit]
COCCN1CCCC[C@]2(C[C@H](CO)[C@H](c3ccccc3)N2C(=O)c2cccc(OC)c2)C1=O | inconclusive: 79.4 µM [inhibitor, partial curve, poor fit]
COc1ccccc1CNC(=O)CCC[C@@H]1[C@H]2CCCN3CCC[C@@H](CN1C(=O)c1ccccc1)[C@@H]23 | inconclusive: 50.1 µM [inhibitor, partial curve, poor fit]
O=C(CNC(=O)c1cccc(-c2ccsc2)c1)NCc1cccc(C(F)(F)F)c1 | inconclusive: 44.7 µM [inhibitor, partial curve, poor fit]
O=C(NCC1CN(C(=O)Cc2cccc(C(F)(F)F)c2)CC12CN(c1ccccc1)C2)Nc1ccccc1 (centres undefined) | inconclusive: 28.2 µM [inhibitor, full curve]
CC(C)COc1cc(=O)n2c(c1C(=O)NCC1CC1)CCCCC2 | inconclusive: 70.8 µM [inhibitor, single point]
CC(C)c1nc2c(NC(=O)c3cccc(Br)c3)cccn2n1 | inactive
COCCn1cc2c3c(cccc31)CN(C(=O)c1cccc(Cl)c1)CC2 | inconclusive: 63.1 µM [inhibitor, single point]
CCCC(=O)N1Cc2ccccc2CC2(CCN(Cc3ccccc3)CC2)C1 | inconclusive: 70.8 µM [inhibitor, single point]
O=C1NCCCCCCN(C(=O)CCC2CCCC2)[C@H]2C[C@H](c3nc(Cc4ccccc4)no3)C[C@@H]12 | inconclusive: 14.1 µM [inhibitor, full curve, poor fit]
Cc1ccc(C(=O)Nc2ccc3c(N4CCOCC4)ncnc3c2)cc1C | inconclusive: 20 µM [inhibitor, full curve, poor fit]
CCCC(=O)Nc1ccc(NC(=O)C2CC(=O)N(CC(C)C)C2)cc1OC (centres undefined) | inactive
Cc1noc2c(N3CC[S+](=O)([O-])CC3)cc(-c3ccc(Cl)cc3)nc12 | active: 10 µM
Cc1ccc(C)c(S(=O)(=O)N2CCCCC2c2noc(COCC3CC3)n2)c1 (centres undefined) | inconclusive: 44.7 µM [inhibitor, partial curve, poor fit]
CC(=O)N1CCC(Cc2ccc(C(=O)N(C)CCc3c(C)nn(C)c3C)cc2)CC1 | inconclusive: 70.8 µM [inhibitor, partial curve, poor fit]

SMILES | Potency
COC(=O)N1CCCCC(NC(=O)CCCc2nc(-c3ccccc3C)no2)C1 (centres undefined) | inconclusive: 10 µM [inhibitor, full curve]
Cc1nnc2ccc(N3CCCN(C(=O)c4ccc(F)cc4)CC3)nn12 | inconclusive: 112 µM [inhibitor, partial curve, poor fit]
COc1ccc(N2CCN(C(=O)COc3cccc(-c4nnc5n4CCCC5)c3)CC2)cc1 | inactive
Cc1ccc(C(=O)N2C[C@H]3OC(=O)N(CCc4cccc(Cl)c4)[C@H]3C2)cn1 | inactive
CC(=O)Nc1ccc(CN2C(=O)OC3(CCN(Cc4ccccc4)CC3)C2(C)c2ccccc2)cc1 (centres undefined) | inconclusive: 50.1 µM [inhibitor, partial curve, poor fit]
CN(C)C(=O)c1ccc(OC2CCN(C(=O)c3ccc(F)c(F)c3)CC2)nc1 | inconclusive: 50.1 µM [inhibitor, partial curve, poor fit]
CN(C)[C@@H]1CN(Cc2ccccn2)CC[C@]1(O)c1ccccc1 | inconclusive: 70.8 µM [inhibitor, single point]
CCc1ccc(-c2nc(C3CC(=O)N(c4ccc(OC)cc4)C3)no2)cc1 (centres undefined) | inconclusive: 31.6 µM [inhibitor, partial curve]
CCCCNC(=O)c1cc2n(n1)CC(c1ccc3c(c1)OCO3)OC2 (centres undefined) | inconclusive: 44.7 µM [inhibitor, partial curve, poor fit]
Cc1ccc(C2Cn3nnc(-c4noc(CCc5ccccc5)n4)c3CO2)cc1 (centres undefined) | inactive
Cc1cc(=O)n(CC(=O)Nc2ccc(Br)cc2F)c(N2CCC(C)CC2)n1 | active: 15.8 µM
Fc1cc(F)cc(Cc2nc3nccc(-c4ccsc4)n3n2)c1 | inconclusive: 50.1 µM [inhibitor, partial curve, poor fit]
O=C(Nc1ccc(C2(C(=O)O)CCC2)cc1)C1CC1 | inactive
CO[C@H]1CN(C2CCN(C(=O)Cn3cc(C)cn3)CC2)[C@H]1c1cccnc1 | inactive
COc1ccc(-n2c(=O)c(C(=O)NC3CC3)nc3cccnc32)cc1 | inactive
O=C(c1ccc(Cl)cc1)N1C[C@@H](F)[C@@H](OCc2nc3ccccc3[nH]2)C1 | inconclusive: 100 µM [inhibitor, partial curve, poor fit]
COCc1nc(-c2ccc(OC3CN(C(=O)NCc4ccc(OC)cc4)C3)cc2)no1 | inconclusive: 44.7 µM [inhibitor, partial curve, poor fit]
O=C(c1cc(Cl)ccc1F)N1CCC(n2cc(-c3nc(-c4ccccc4)no3)nn2)C1 (centres undefined) | inconclusive: 44.7 µM [inhibitor, partial curve, poor fit]
CNC(=O)c1cc(C)nc2onc(C3CCCN3C(=O)c3ccccc3F)c12 (centres undefined) | inactive
